According to the supplement of paper PMC10126150:
Values marked as one replicate rest on one cluster of the flow cell; about a third of the high ones do not repeat.

Tested on: ATP
Test: switch fluorescence ratio, 500 uM ATP over buffer (Cy3 cluster intensity, sum of 5 cycles each) (fold (ratio)); higher = stronger signal-on switching upon ATP binding; sequences stand for … in TCGTCGGCAGCGTCAGATGTGTATAAGAGACAGTTTTTTTTTTTTTTTTTTTTTTTTT…TC
Conditions: aptamer strand: ATP DNA aptamer (quencher-CACCTGGGGGAGTATTGCGGAGGAAGG + anchor), 100 nM annealed; ATP concentration: 500 uM; one replicate
In short: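 After annealing to 100 nM quencher-labelled ATP aptamer, Cy3-labelled switching-strand clusters on a modified Illumina MiSeq flow-cell were imaged in selection buffer. A second image followed after 15 min with 500 uM ATP at 22 °C, and five such buffer/ATP cycles were done, each separated by NaOH stripping and re-annealing. The fluorescence ratio, averaged per switch-domain sequence, is summed target-cycle over summed buffer-cycle Cy3 intensity per cluster, with clusters outside 100-1000 RFU excluded.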
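Further: ATP exposure 15 min at 22 °C before imaging.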

Row | Sequence | switch fluorescence ratio
1 | TAGAGCGAAC | 1.05
2 | GCTGCGGCAT | 0.972
3 | AATTCCGTGG | 0.955
4 | ATTGCCGTCC | 1.02
5 | TAATGCCCCG | 0.974
6 | ATGAAGGCAA | 1.57
7 | TCGGGGCATG | 1.04
8 | GAGTGTGGCC | 0.996
9 | TTTGAGGGCC | 0.985
10 | AATAGGTCGC | 1.01
11 | TGTGGAAGCC | 0.975
12 | GAGTCCAG | 0.983
13 | ACGACTGGTG | 1.25
14 | AGTTTTCGAC | 1.01
15 | GGGCAAACGT | 1.07
16 | ATATTTTATA | 1.01
17 | ATGGAACGA | 0.932
18 | AATTCATGGG | 0.99
19 | CGTGGGACTA | 0.952
20 | CACGGCGCAA | 0.848
21 | AGGCCGGG | 1.04
22 | TACTCGGACT | 1.06
23 | GTATAATACG | 1.01

Row | Sequence | switch fluorescence ratio
24 | GTACGGACTA | 1.3
25 | CCACTTCCCG | 1.33
26 | AAGCCTTGTC | 1.11
27 | TACGTCTGAA | 0.996
28 | GTCACTAAT | 1.07
29 | CGTGTCTGGA | 1.01
30 | GTTCTACTCA | 0.991
31 | GCTGTTAGC | 0.986
32 | CATGGGCAGG | 1.1
33 | CGCGGTATAA | 1.01
34 | CAGGCATGTT | 0.995
35 | CCATTCTTTT | 0.987
36 | TTAGATGGAA | 0.998
37 | TTAGGTTCGG | 0.935
38 | TTTCTATAAT | 0.992
39 | GCTGGGTTAA | 0.968
40 | GTTAGAGGTG | 1.03
41 | AGTTGGAGAC | 0.971
42 | TGCGATAATA | 1
43 | ACGACGGACC | 1.77
44 | GGGATGTGGC | 0.926
45 | TTCACTTAGA | 1.02
46 | AGTCGATCCC | 0.994

Row | Sequence | switch fluorescence ratio
47 | GCATGCCAGC | 1.01
48 | GGTTGGAGCG | 1.01
49 | TGTAACGAGT | 0.998
50 | TGAAAATTG | 0.979
51 | TATCTGTTAC | 1.09
52 | ATATCTCCG | 1.19
53 | CCCAATTAGA | 1.01
54 | AGTGGGGGCG | 1.02
55 | GTTGACGAAC | 0.993
56 | GCTAAAAAG | 1
57 | GTATATAGAG | 1.01
58 | AACGATAGCG | 1.08
59 | TGATGACTCT | 1.01
60 | CAAAACGC | 1
61 | CGATCGTGAC | 1.5
62 | TAGAGACCGC | 1.08
63 | AGTGCCGCAT | 1.07
64 | GTATTTTGTG | 0.985
65 | CCGATTTGGT | 2.98
66 | TTAAGAGCGT | 0.967
67 | GGCTAATGTT | 1.01
68 | AGTAAGGACA | 1.04
69 | ATATATTTGA | 1.03

Row | Sequence | switch fluorescence ratio
70 | CACTGAGTAC | 0.968
71 | TGCGGGCGAA | 0.977
72 | ATTCGTATCT | 1.03
73 | CGCACCGTTT | 1.02
74 | GGGAATAAAT | 1.01
75 | ATGCGTGCGC | 1
76 | TTCGTCGGCG | 0.978
77 | AGCGTGTT | 1
78 | TAGTGCATAG | 0.976
79 | TGATTTGCTG | 0.946
80 | CCAGATTTAC | 1.02
81 | TCTTTGTCGA | 0.995
82 | TACCGGATGT | 1.03
83 | TTTCAAACAC | 1.05
84 | TAGGTTGAGA | 1.02
85 | ATAGTTTGCA | 0.971
86 | GATTTAGTGG | 1
87 | GCATTCAGTC | 1.02
88 | TAATCCTTT | 1
89 | TCGCCTACGT | 1.02
90 | ACCATCAGAG | 1
91 | CTGACTGCC | 1.25
92 | AGGTTATCAA | 1.02

Row | Sequence | switch fluorescence ratio
93 | GTGTAGGGG | 0.982
94 | CGTAGTTATT | 1.03
95 | AAACCTTTCA | 2.37
96 | GTTAACTGCG | 1.05
97 | ATTAAACTGG | 0.925
98 | ATTTTCGTGA | 1
99 | ACGAGTACGA | 1.05
100 | ACGCCCGCGT | 1.02
101 | TAGGGTAGGA | 1.01
102 | ATAAAAATAG | 1.01
103 | TGGTAAAAGT | 0.97
104 | TTAAATCAT | 0.988
105 | TGGGGACAGG | 0.947
106 | GGACTAGTCG | 0.955
107 | AGTGCCACTA | 1.05
108 | CTAGTACAAC | 1.02
109 | TAAAGATTCA | 1.02
110 | CGAATTTCAG | 0.974
111 | CCCGTACGTG | 1.02
112 | TACAGCATTA | 1.06
113 | GGTGGCGCCC | 1.01
114 | TAAGCCCCGG | 1.05
115 | TAGAGTCGGG | 1.02

Row | Sequence | switch fluorescence ratio
116 | CAAGGATATG | 1
117 | ATTTGGATGA | 0.992
118 | AGCGGAACTT | 1.06
119 | AAGGTGTTCC | 1.02
120 | AGCCGGTCGC | 1.02
121 | CCTGGAAAAT | 1.04
122 | ACGGTTCATC | 0.985
123 | CTATGCTATG | 1.05
124 | ACCGAAGTGT | 0.969
125 | GACTCAGTAG | 1.02
126 | TTATCACATC | 0.926
127 | TTATTAGCT | 1.02
128 | CCTTGGCCCG | 1.06
129 | AGGTAATACC | 1.03
130 | TGGTTTTCAA | 1.02
131 | GCCAGCGTCA | 1.02
132 | TCAATGCAAG | 1
133 | CTAATTGGTG | 1.01
134 | CAGCGGGGCT | 1.01
135 | GCTGGTACGC | 0.975
136 | TGGGCCGCAG | 1.11
137 | TGTAAGCAGA | 1.08
138 | TTCAACCACG | 1.08

Row | Sequence | switch fluorescence ratio
139 | TAAGCGTTGC | 1.03
140 | ATAGGCTTAG | 0.952
141 | GCCAATAACA | 0.962
142 | CCATCCCAGC | 1.01
143 | GGTTACTTTG | 1.02
144 | GAGTTACGCT | 1.03
145 | GTGTATACCC | 1.02
146 | GTTGGTTGT | 1.01
147 | ATAAATATGC | 1.08
148 | ATAGGGCTGA | 0.985
149 | GATGTTGGTT | 1.02
150 | CTAAGCACCG | 1.09
151 | GTAGTGAATA | 1.1
152 | GCCTTTTTGA | 0.999
153 | CCAAGTAGCC | 1.02
154 | CGTTAGGTG | 0.995
155 | TATTTGCTCT | 0.961
156 | GGGAACTATA | 1.02
157 | GCGAACGTTA | 1.24
